Screen size: about 310,000 compounds; about 2,200 (0.71%) showed an effect of 50% or more. The effect is printed as a negative number. The list shows a part of the results.
Target: human ether-à-go-go-related gene (hERG) potassium channel (human, UniProt Q12809)
Test: primary screen, population patch clamp on CHO cells stably expressing hERG

Sequence of human ether-à-go-go-related gene (hERG) potassium channel (Q12809 whole entry, looked up): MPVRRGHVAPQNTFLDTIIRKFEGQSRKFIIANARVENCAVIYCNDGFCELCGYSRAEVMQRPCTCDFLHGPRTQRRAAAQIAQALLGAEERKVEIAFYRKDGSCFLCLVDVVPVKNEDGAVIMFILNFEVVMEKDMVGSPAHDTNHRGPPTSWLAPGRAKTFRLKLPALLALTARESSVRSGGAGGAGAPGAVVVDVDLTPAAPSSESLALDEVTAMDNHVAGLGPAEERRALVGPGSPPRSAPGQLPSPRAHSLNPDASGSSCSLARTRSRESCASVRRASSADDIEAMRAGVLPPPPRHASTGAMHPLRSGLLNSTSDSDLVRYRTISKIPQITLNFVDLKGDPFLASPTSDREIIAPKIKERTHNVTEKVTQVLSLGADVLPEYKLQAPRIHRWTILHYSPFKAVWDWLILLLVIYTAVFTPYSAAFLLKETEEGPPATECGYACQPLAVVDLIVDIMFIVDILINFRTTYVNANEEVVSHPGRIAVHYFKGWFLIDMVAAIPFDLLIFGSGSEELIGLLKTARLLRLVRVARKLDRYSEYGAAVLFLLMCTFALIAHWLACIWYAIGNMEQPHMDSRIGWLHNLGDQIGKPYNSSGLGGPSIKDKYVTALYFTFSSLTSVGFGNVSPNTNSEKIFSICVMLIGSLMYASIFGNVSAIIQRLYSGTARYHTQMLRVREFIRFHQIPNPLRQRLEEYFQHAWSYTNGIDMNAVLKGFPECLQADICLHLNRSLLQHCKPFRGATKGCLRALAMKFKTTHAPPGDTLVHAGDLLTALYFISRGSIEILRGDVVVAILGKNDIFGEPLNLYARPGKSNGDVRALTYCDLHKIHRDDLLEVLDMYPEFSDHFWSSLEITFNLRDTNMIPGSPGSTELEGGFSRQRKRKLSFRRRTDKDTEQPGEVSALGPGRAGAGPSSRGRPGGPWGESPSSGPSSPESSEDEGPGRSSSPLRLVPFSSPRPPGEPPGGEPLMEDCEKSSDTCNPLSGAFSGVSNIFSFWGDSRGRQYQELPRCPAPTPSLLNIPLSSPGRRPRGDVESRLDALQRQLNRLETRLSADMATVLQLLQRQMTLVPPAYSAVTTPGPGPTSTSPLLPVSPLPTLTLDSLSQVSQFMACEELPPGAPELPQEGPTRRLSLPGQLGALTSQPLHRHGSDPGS

Compound | hERG current change (%, negative = inhibition) at 1uM
COc1ccc(C2CC(c3ccc(C)cc3)Nc3nc(N)nn32)cc1 (stereo not drawn) | 7.13%
O=C(Cc1cccs1)NNC(=S)NC(=O)c1ccc(F)c(F)c1 | 11.5%
O=C(Oc1ccc(=O)n(-c2ccccc2)n1)c1ccc(Cl)cc1 | 8.77%
CCCn1ncc(/C=N/O)c1C | 12.5%
CC(=Nc1cccc(O)c1)c1sc2ccccc2c1O | 12.2%
O=C(/C=C/c1ccco1)NC(=S)Nc1cc(-c2nc3ccccc3s2)ccc1Cl | 4.95%
Cc1cc(C)n(CCc2nc3c4ccccc4n(CC#N)c(=O)n3n2)n1 | 9.38%
COCCNC(=O)C(=O)Nc1ccc2c(c1)N(S(=O)(=O)c1cccs1)CCC2 | 13.5%
O=C1CSCN1c1cc(Cl)ccc1Cl | 9.56%
COc1ccc(S(=O)(=O)N2CCC(Cc3ccccc3)CC2)cc1C(N)=O | 20.8%
CCCNS(=O)(=O)c1cccc(C(=O)NNC(=O)c2cc(C)oc2C)c1 | 15.2%
Cc1c(C(=O)C(=O)NCCC2=CCCCC2)c2ccccc2n1C | 10.4%
Cc1ccc(NC(=O)Cn2c(O)c(N=NC(N)=O)c3ccccc32)cc1 | -3.88%
CCS(=O)(=O)Nc1cccc(C2=NN(C(C)=O)C(c3cccs3)C2)c1 (stereo not drawn) | 17.2%
O=C(CN1C(=O)c2ccccc2C1=O)NCc1ccc(C(=O)O)cc1 | 12.6%
C[C@H](CCC(=O)O)[C@H]1CC[C@H]2[C@@H]3[C@@H](O)C[C@@H]4C[C@H](O)CC[C@]4(C)[C@H]3CC[C@]12C | 5.06%
NC(=O)C1=C[C@@H](c2coc3ccccc3c2=O)C[C@@H](OCCCCO)O1 | 7.66%
CN(CC(=O)Nc1ccccc1Br)C(=O)CN1CCN(c2ccccc2Cl)CC1 | 6.12%
Cc1ccc(S(=O)(=O)N2CCC(C(=O)Nc3ccccc3N3CCCCC3)CC2)cc1C | -3.96%

Compound | hERG current change (%, negative = inhibition) at 1uM
O=C(CN1CCN(c2ccccc2O)CC1)NC(=O)NCc1ccco1 | 1.07%
CC1C(Br)C(=O)NC(=O)N1Cc1ccccc1 (stereo not drawn) | 14.2%
CCOC(=O)c1c(C)[n+]([O-])c2ccc3c(non3O)c12 | 13.3%
Cc1c(Cl)cccc1-c1ccc(CNCc2ccccn2)o1.Cl | 9.72%
NS(=O)(=O)c1ccc(CCNS(=O)(=O)c2cccs2)cc1 | 7.48%
O=c1[nH]cc(S(=O)(=O)N2CCN(c3cccc(Cl)c3)CC2)c(=O)[nH]1 | -7.64%
COc1cc(C(C)=O)ccc1OCCCN1CCC(Cc2ccccc2)CC1.O=C(O)C(=O)O | -82.8%
Cc1ccc2c(c1)C1NC(=S)NC(C)(O2)C1C(=O)Nc1ccc(Cl)cc1 (stereo not drawn) | 14.5%
CCOC(=O)Cc1c(C)nc(SC)[nH]c1=O | 14.7%
O=S(=O)(Nc1c(F)cccc1F)c1ccc2c(c1)OCCO2 | 11.6%
CC(=O)c1ccc(NC(=O)c2sc3nc4n(c(=O)c3c2C)CCCCC4)cc1 | 1.94%
Cn1c(C(=O)NCc2ccccn2)cc2c(=O)n3ccccc3nc21 | 7.21%
Cc1cc(=O)oc2cc(OC(=O)C3CCN(C(=O)c4ccc(F)cc4)CC3)ccc12 | 11.1%
Cc1csc2c(N3CCN(C(=O)c4ccc(C(C)(C)C)cc4)CC3)ncnc12 | 2.51%
O=C(CN(C(=O)CCC(=O)Nc1ccccn1)c1cccc(F)c1)NCc1ccc(F)cc1 | 3.47%
O=C(NCc1ccccc1Cl)c1cccc(C(F)(F)F)c1 | 0.675%
c1ccc(-c2cnnc(N3CCOCC3)n2)cc1 | 1.64%
CCOC(=O)C1CCN(c2c(NCCN(CC)c3ccccc3)c(=O)c2=O)CC1 | 4.79%
COc1ccc(C(=O)O/N=C(\C)c2cnccn2)cc1 | 10.3%

Compound | hERG current change (%, negative = inhibition) at 1uM
Oc1cc2ccccc2cc1-c1nnc2n1-c1ccccc1SC2 | -7.18%
CCOC(=O)c1cc(-c2ccc(C)c([N+](=O)[O-])c2)nc2c1c(=O)n(C)c(=O)n2C | 5.91%
COC(=O)C1CSc2[nH]c(=O)sc2C1c1ccc(OC)c(OC)c1 (stereo not drawn) | 11.2%
CNc1nc(N)c([N+](=O)[O-])c(Nc2cccc(F)c2)n1 | 12.4%
O=C(c1cc2c([nH]c1=O)CCCC2)N1CCc2c([nH]c3ccccc23)C1c1ccccc1F (stereo not drawn) | 7.44%
CC(c1ccccc1)C(NC(=O)OCC1c2ccccc2-c2ccccc21)C(=O)O (stereo not drawn) | 16.1%
CCC(=O)Nc1ccc(Nc2nc(Cl)nc(Nc3ccc(NC(=O)CC)cc3)n2)cc1 | 12.6%
O=C(NC(=S)NCCC1=CCCCC1)c1cncc(Br)c1 | 16.6%
O=C1C(Cl)=C(NCCN2CCCCC2)C(=O)c2ccccc21 | -4.12%
CCCCCCC(=O)NNC(=O)CC(=O)Nc1ccccc1C(=O)O | 16.4%
Cc1ccc(C(NC(=O)c2ccccc2S(C)(=O)=O)c2ccccc2)cc1 (stereo not drawn) | 0.0168%
CCOC(=O)C1C(=O)NC(N2CCOCC2)=NC1c1ccco1 (stereo not drawn) | 6.67%
OCCCc1cn(-c2ccccc2)c2ccccc12 | 10%
Cc1c(C)n(C(=O)CSc2nc3ccccc3[nH]2)c2ccccc12 | 8.5%
CC(=O)c1cccc(NC(=O)N2CCC(NC(=O)C3CCCCC3)CC2)c1 | 7.36%
Cc1nn(C)c(C)c1CN(Cc1nc(-c2cc(F)ccc2F)oc1C)C1CC1 | 5.04%
O=C(CN1C(=O)NC2(CCCC2)C1=O)c1ccc(Cl)s1 | 12.2%
CCOC(=O)c1c(C)c(C(=O)NCCN2CCOCC2)c(C)n1C | 5.82%
Cc1ccc(NS(=O)(=O)c2ccc3c(c2)CCC(=O)N3)cc1 | 2.43%

— paper PMC4336329 (PLoS ONE, 2015)
